# Measured values as given in the supplement of paper PMC10338343.
# ± gives the standard deviation. The list shows a part of the results, in another mix than the full data.
# Tested on: MIWI (PIWIL1) piRISC loaded with piRNA #1 (30 nt)
# Test: pre-steady-state target cleavage rate (min^-1); MIWI and MILI are mouse PIWI proteins and EfPiwi is from a freshwater sponge; tags in brackets are library labels; higher = faster piRNA-guided slicing of the target
# Details: guide: piRNA #1 5'p-UGAGGUAGUAGGUUGUAUAGUAUCCAGAGG; auxiliary factor: 500 nM mouse GTSF1
# In short: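 The method was Cleave-'n-Seq, in which uncleaved targets from a transcribed, DNA-blocked target RNA library were sequenced after exposure to active affinity-purified piRISC carrying one synthetic guide, with or without GTSF1 partner protein. Reactions contained 0.1 nM library, 1 nM piRISC and, where present, 500 nM GTSF1 in HEPES–potassium acetate buffer at 33 °C for 0–8 or 0–960 min. Reads were normalised to depth and to weakly complementary targets, three trials were pooled, and k3 was capped at 0.0001 min^-1. The pre-steady-state cleavage rate came from a burst-and-steady-state fit.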
row,Sequence,pre-steady-state target cleavage rate
1,GGUCUGGAUACUAUAGAACCUACUACCUCA,0.995 ± 0.065
2,GGAGACGAUCACUAUACAACCUACUACCUCA,1.19 ± 0.1
3,GGAGACCUAUGUAUACAACCUACUGCCUCA,0.013 ± 0.0027
4,CCUCUGCAUACUAAACAACCUACUACCUCA,1.93 ± 0.12
5,GGUCUGGAUUCUUUACAACCUACUACCUCA,1.22 ± 0.083
6,GGAGACCUUACUAUACAACCUAGUAGCUCA,0.00589 ± 0.0023
7,GGUCUGGAUACUAUACAUCCUACUACCUGA,0.395 ± 0.038
8,GGUGUGGAUACUAUACAUCCUACUACCUCA,1.27 ± 0.054
9,GGACUGGAUACUAUACAACCGACUACCUCA,0.00859 ± 0.0015
10,GGAGACCUAUGAUUACAACCUACAUGGAGA [g8:g17:cont:t1A],< 0.0001
11,GGAGUGGAUUCUAUACAACGUACUACCUCA,0.953 ± 0.059
12,GGAGACCUAUGAUAUGUACCUACUACCCA,< 0.0001
13,GGAGUGGAUACUAAAGAACCUACUACCUCA,1.2 ± 0.083
14,GGACUGGAUACUAUACAACCUUCUACCUCA,0.707 ± 0.047
15,GGUCUGGAUACUAUACAACCUUACUACCUCA,0.00317 ± 0.0022
16,GGAGACCUAACUAUACAACCUACUACGUGA,0.356 ± 0.04
17,GGACAGGAUACUAUACAACCUACUUCCUCA,0.0423 ± 0.013
18,GGAGACCUAUCUAUACUACCUACUUCCUCA,0.0039 ± 0.0024
19,GGAGACCUAACUAAACAAGCUACUACCUCA,0.115 ± 0.025
20,GCUCUGGAUACUUUACAACCUACUACCACA,0.971 ± 0.06

row,Sequence,pre-steady-state target cleavage rate
1,GGAGUGGAUACUAUACCACCUACUACCUCA,1.3 ± 0.075
2,GCUCUGUAUACUAUACAACCUACUACCUCA,1.76 ± 0.093
3,GCUGUGGAUACAAUACAACCUACUACCUCA,1.67 ± 0.12
4,GGAGACCAUUGAAUACAACCUACUACCUCA,0.0064 ± 0.0037
5,GCUCUGGAUACUAUACAACCUACUUCGUCA,0.328 ± 0.045
6,GGACUGGAUACUACACAACCUACUACCUCA,1.77 ± 0.11
7,GGAGACCUAUGAUAUGAUCCAACUACCUCA,< 0.0001
8,GGAGAGGAUACUAUACAACCUACUACCUCC [g2:g25:cont:t1C],0.801 ± 0.042
9,GCUCUGGAUACUAUAGAACCUAGUACCUCA,0.0062 ± 0.0022
10,GGAGUGGAUACAAUACAACCUACUACCUCA,1.46 ± 0.08
11,GGAGAGGAUACUAUACAACCUUCUAGCUCA,0.0222 ± 0.0082
12,GGAGUGGAUACAUUACAACCUACUACCUCA,1.21 ± 0.081
13,GGAGACCUAACUAUACAGCCUACUACCUCA,0.287 ± 0.03
14,GGAGAGGAUACUAUACAACGUACUACCUGA,0.231 ± 0.037
15,GGAGACGAUACUAUACAACCUUACUACCUCA,0.00534 ± 0.0031
16,GGAGACCAUACUAUACAACCUCACUACCUCA,0.00294 ± 0.0027
17,GGUCUGGAUACUAUACAUGGUACUACCUCA,0.0214 ± 0.0031
18,GGACUGGACACUAUACAACCUACUACCUCA,1.63 ± 0.14
19,CCUCUGGAUACUAUACAACCUUCUAGCUCA,0.33 ± 0.042
20,GGAGACCUAAGCUAUACAACCUACUACCUCA,0.856 ± 0.07
